Measured values reported in the supplement of paper PMC11876631.
± gives the standard deviation of the averaged measurements. Laboratory Escherichia coli strains with one amino-acid change in an essential protein, pooled on minimal glucose agar with carbenicillin or gentamicin at twice the control MIC (plus kanamycin and chloramphenicol for the plasmids), 48 h. Fold change of barcode share against drug-free plates; higher = less susceptible. Active = above 20 in both replicates (the paper's putatively resistant). '<' = one read or none on drug, '>' = one read or none on a drug-free plate. Shares are relative, so most strains fall below 1 when a few take over. Listed are strains with at least 15 reads on both drug-free plates, and hits; most hits rest on fewer reference reads. Replicate rank correlation about 0.5. Edits are read from barcodes.

B1: topA; numbered along this chain (parent)
chain: MGKALVIVESPAKAKTINKYLGSDYVVKSSVGHIRDLPTSGSAAKKSADSTSTKTAKKPKKDERGALVNRMGVDPWHNWEAHYEVLPGKEKVVSELKQLAEKADHIYLATDLDREGEAIAWHLREVIGGDDARYSRVVFNEITKNAIRQAFNKPGELNIDRVNAQQARRFMDRVVGYMVSPLLWKKIARGLSAGRVQSVAVRLVVEREREIKAFVPEEFWEVDASTTTPSGEALALQVTHQNDKPFRPVNKEQTQAAVSLLEKARYSVLEREDKPTTSKPGAPFITSTLQQAASTRLGFGVKKTMMMAQRLYEAGYITYMRTDSTNLSQDAVNMVRGYISDNFGKKYLPESPNQYASKENSQEAHEAIRPSDVNVMAESLKDMEADAQKLYQLIWRQFVACQMTPAKYDSTTLTVGAGDFRLKARGRILRFDGWTKVMPALRKGDEDRILPAVNKGDALTLVELTPAQHFTKPPARFSEASLVKELEKRGIGRPSTYASIISTIQDRGYVRVENRRFYAEKMGEIVTDRLEENFRELMNYDFTAQMENSLDQVANHEAEWKAVLDHFFSDFTQQLDKAEKDPEEGGMRPNQMVLTSIDCPTCGRKMGIRTASTGVFLGCSGYALPPKERCKTTINLVPENEVLNVLEGEDAETNALRAKRRCPKCGTAMDSYLIDPKRKLHVCGNNPTCDGYEIEEGEFRIKGYDGPIVECEKCGSEMHLKMGRFGKYMACTNEECKNTRKILRNGEVAPPKEDPVPLPELPCEKSDAYFVLRDGAAGVFLAANTFPKSRETRAPLVEELYRFRDRLPEKLRYLADAPQQDPEGNKTMVRFSRKTKQQYVSSEKDGKATGWSAFYVDGKWVEGKK
B2: glmU; numbered along this chain (parent)
chain: MLNNAMSVVILAAGKGTRMYSDLPKVLHTLAGKAMVQHVIDAANELGAAHVHLVYGHGGDLLKQALKDDNLNWVLQAEQLGTGHAMQQAAPFFADDEDILMLYGDVPLISVETLQRLRDAKPQGGIGLLTVKLDDPTGYGRITRENGKVTGIVEHKDATDEQRQIQEINTGILIANGADMKRWLAKLTNNNAQGEYYITDIIALAYQEGREIVAVHPQRLSEVEGVNNRLQLSRLERVYQSEQAEKLLLAGVMLRDPARFDLRGTLTHGRDVEIDTNVIIEGNVTLGHRVKIGTGCVIKNSVIGDDCEISPYTVVEDANLAAACTIGPFARLRPGAELLEGAHVGNFVEMKKARLGKGSKAGHLTYLGDAEIGDNVNIGAGTITCNYDGANKFKTIIGDDVFVGSDTQLVAPVTVGKGATIAAGTTVTRNVGENALAISRVPQTQKEGWRRPVKKK
B3: mrdB; numbered along this chain (parent)
chain: MTDNPNKKTFWDKVHLDPTMLLILLALLVYSALVIWSASGQDIGMMERKIGQIAMGLVIMVVMAQIPPRVYEGWAPYLYIICIILLVAVDAFGAISKGAQRWLDLGIVRFQPSEIAKIAVPLMVARFINRDVCPPSLKNTGIALVLIFMPTLLVAAQPDLGTSILVALSGLFVLFLSGLSWRLIGVAVVLVAAFIPILWFFLMHDYQRQRVMMLLDPESDPLGAGYHIIQSKIAIGSGGLRGKGWLHGTQSQLEFLPERHTDFIFAVLAEELGLVGILILLALYILLIMRGLWIAARAQTTFGRVMAGGLMLILFVYVFVNIGMVSGILPVVGVPLPLVSYGGSALIVLMAGFGIVMSIHTHRKMLSKSV

Variants of: B1
Test: barcode share on antibiotic plates over drug-free plates; higher = less susceptible
Settings: with Escherichia coli (laboratory strain); antibiotic: carbenicillin; 2× MIC (3.1 µg/mL)
Protocol: (§1)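 A pool of E. coli strains, each edited to carry one amino-acid change in an essential protein, was grown for 48 h on minimal glucose agar with or without antibiotic; strain barcodes were sequenced; mean of two replicates.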

Variant	fold change of barcode share
F616Q	0.405 ± 0.11
F616D	0.39 ± 0.31
F616P	0.464 ± 0.098
F571Q	1.11 ± 0.015
V6W	0.203 ± 0.15
V6A	0.293 ± 0.21
L617D	0.735 ± 0.063
L617W	0.476 ± 0.19

Same assay, conditions: with Escherichia coli (laboratory strain); antibiotic: gentamicin; 2× MIC (MIC 0.45 µg/mL)

Variant	fold change of barcode share
F616Q	0.0407 ± 0.036
F616P	0.03 ± 0.029
F571A	0.0645 ± 0.028
F571Q	1.12 ± 0.48
F571W	< 0.00907
V6W	5.46 ± 6.3
V6A	0.125 ± 0.16
L617A	< 0.0161
L617W	< 0.0136

Variants of: B2
Test: as above
Settings: with Escherichia coli (laboratory strain); antibiotic: gentamicin; 2× MIC (MIC 0.45 µg/mL)
Protocol: as §1

Variant	fold change of barcode share
L173W	< 0.0163
L173Q	< 0.0171
L128Q	0.007465 ± 1.1e-05
L128A	0.00443 ± 0.0012
L128D	0.00555 ± 0.00024
L128W	0.00651 ± 0.00064
L100P	0.0122 ± 0.0086
L100D	< 0.0159
L100A	< 0.00361
L100Q	< 0.00259
L100W	0.0339 ± 0.033
I174W	< 0.0141
I174D	< 0.0132
I174Q	0.6 ± 0.34
L129W	0.0238 ± 0.0097
L129Q	0.0143 ± 0.018
L129A	0.00408 ± 0.0042
L53P	0.0536 ± 0.073
L53A	0.00411 ± 0.00079
W183Q	< 0.0108
W183A	< 0.00856
W183D	< 0.00895

Same assay, conditions: with Escherichia coli (laboratory strain); antibiotic: carbenicillin; 2× MIC (3.1 µg/mL)

Variant	fold change of barcode share
L173Q	0.23 ± 0.086
L128Q	0.341 ± 0.029
L128A	0.385 ± 0.084
L128D	0.279 ± 0.0062
L128P	1.1 ± 0.59
L128W	0.393 ± 0.092
L100P	2.98 ± 1.7
L100D	0.871 ± 1
L100A	0.435 ± 0.32
L100Q	0.292 ± 0.044
L100W	1.11 ± 0.8
I174D	0.137 ± 0.037
I174Q	0.28 ± 0.016
L129W	0.363 ± 0.063
L129Q	0.403 ± 0.041
L129A	0.413 ± 0.018
L129D	0.617 ± 0.31
L53P	0.45 ± 0.083
L53A	0.498 ± 0.12
W183P	0.317 ± 0.18
W183Q	0.38 ± 0.16
W183A	1.51 ± 1.1
W183D	0.329 ± 0.18

Variants of: B3
Test: as above
Settings: with Escherichia coli (laboratory strain); antibiotic: carbenicillin; 2× MIC (3.1 µg/mL)
Protocol: as §1

Variant	fold change of barcode share
M357W	0.0834 ± 0.07
M357A	0.272 ± 0.12
L214Q	0.295 ± 0.25
M212A	0.302 ± 0.085
M212W	0.169 ± 0.035
M212D	0.365 ± 0.2
M212Q	0.244 ± 0.035
V34P	0.467 ± 0.093
V34A	0.223 ± 0.15
V34Q	0.283 ± 0.13
V34W	0.431 ± 0.062
V34D	0.397 ± 0.25
I294D	0.337 ± 0.005
L21D	0.256 ± 0.18
L21W	0.217 ± 0.0027
L21P	0.188 ± 0.034
L21A	0.341 ± 0.011
L21Q	0.175 ± 0.11
I35Q	0.1606 ± 0.0009
I35D	0.212 ± 0.035
I35A	0.187 ± 0.036
I35P	0.138 ± 0.029

Same assay, conditions: with Escherichia coli (laboratory strain); antibiotic: gentamicin; 2× MIC (MIC 0.45 µg/mL)

Variant	fold change of barcode share
M357A	< 0.0129
M213A	< 0.0187
L214Q	< 0.0227
L214A	< 0.0152
M212A	< 0.0148
M212W	< 0.00744
M212D	0.0197 ± 0.011
M212Q	0.0117 ± 0.00045
V34P	< 0.00288
V34A	< 0.00755
V34Q	< 0.00494
V34W	< 0.00429
V34D	0.0482 ± 0.056
I294D	0.0208 ± 0.014
L21D	< 0.00632
L21W	< 0.00438
L21P	< 0.00666
L21A	0.00922 ± 0.0038
L21Q	< 0.0115
I35Q	0.0746 ± 0.093
I35W	< 0.0208
I35D	< 0.00793
I35A	< 0.00576
I35P	< 0.0104
